In patent US20170106058A1, “PHARMACEUTICAL COMPOSITION AGAINST CHRONIC BACTERIAL INFECTIONS” (Lysando AG, priority 2014, published 2017):

Tested on: A. baumannii RUH134 persisters
Test: Persister killing assay, isolated persister fraction of A. baumannii RUH134
Format: cell-based, Acinetobacter baumannii
Conditions: 30× MIC
From the text: Planktonic persister cells were isolated from a stationary-phase culture as described previously (Liebens V, Defraine V, Van der Leyden A, De Groote V N, Fierro C, Beullens S, Verstraeten N, Kint C, Jans A, Frangipani E, Visa P, Marchal K, Versées W, Fauvart M, Michiels J. 2014. A putative de-N-acetylase of the PIG-L superfamily affects fluoroquinolone tolerance in Pseudomonas aeruginosa. Pathogen. Dis. 71:39-54.) with minor modifications. An overnight culture of P. aeruginosa PA14, PAl255 (a cystic fibrosis isolate), Escherichia coil UTI-89 (isolate from chronic urinary tract infection) and Acinetobacter baumannii RUH134 (reference strain for global clone 2) was diluted 100×in 50 ml 1:20 Trypticase soy broth (TSB). After overnight growth at 37° C., the cultures were treated with either 10 μg/ml ofloxacin (P. aeruginosa strains), 200 μg/ml tobramycin (A. baumannii) or 200 μg/ml amikacin (E. coli) for 5 h at 37° C., while shaking at 200 rpm. The antibiotic concentrations were chosen to allow only persister cells to survive, based on previous time-kill curves. The persister fractions were isolated by centrifugation (5,250× g for 15 min at 4° C.), and the cell pellet was washed twice with 20 mM HEPES (pH 7.4). Prior to treatment, the cells were resuspended in a ten-fold reduced volume of 20 mM HEPES (pH 7.4) to concentrate the persisters.
A persister killing assay was performed as described previously (Liebens et al., 2014), with minor modifications. A volume of 100 μl of the isolated persister fraction was mixed with either the polypeptide according to SEQ ID NO: 124, 125, 126 or ciprofloxacin (final concentrations of 10× or 30× MIC against the respective strains), in the absence or presence of 0.5 mM EDTA-Na2 (final concentration) up to a final volume of 200 μl. Control treatments with 20 mM HEPES (pH 7.4), 0.5 mM EDTA, or ofloxacin/tobramycin/amikacin (30× and 10× MIC) were performed in parallel. […] The number of persisters was determined after 72 h of incubation to allow for complete resuscitation of all surviving persisters.

B1: SEQ ID NO: 125: polypeptide according to SEQ ID NO: 125, comprising a peptidoglycan hydrolase (protein)
chain: MGGLKKLGKKLEGAGKRVFNAAEKALPVVAGAKALRKGSKNSEKNASIIMSIQRTLASLSLYGGRIDGLFGEKCRGAIILMLNKVYPNFSTNKLPSNTYEAESVFTFLQTALAGVGLYTITIDGKWGGTSQGAIDALVKSYRQITEAERAGSTLPLGLATVMSKHMSIEQLRAMLPTDRQGYAEVYIDPLNETMDIFEINTPLRIAHFMAQILHETACFKYTEELASGKAYEGRADLGNTRPGDGPLFKGRGLLQITGRLNYVKCQVYLREKLKDPTFDITSSVTCAQQLSESPLLAALASGYFWRFIKPKLNETADKDDIYWVSVYVNGYAKQANPYYPNRDKEPNHMKERVQMLAVTKKALGIVLEHHHHHH
modifications: CecropinA(A. aegyptii)-OBPlyshis
- effect on persisters (alone, without EDTA): did not strongly affect persisters
- effect on persisters (with 0.5 mM EDTA): strong reduction
- reduction of persisters in comparison to 0.5 mM EDTA/Tobramycin control (with 0.5 mM EDTA): approximately 1.8 log
